Test results: publication PMC12136788
The list shows a part of the results.

T1: UNK ZnF1-6 (called full-length) (human, UniProt Q9C0B0 30-357)
T1 sequence: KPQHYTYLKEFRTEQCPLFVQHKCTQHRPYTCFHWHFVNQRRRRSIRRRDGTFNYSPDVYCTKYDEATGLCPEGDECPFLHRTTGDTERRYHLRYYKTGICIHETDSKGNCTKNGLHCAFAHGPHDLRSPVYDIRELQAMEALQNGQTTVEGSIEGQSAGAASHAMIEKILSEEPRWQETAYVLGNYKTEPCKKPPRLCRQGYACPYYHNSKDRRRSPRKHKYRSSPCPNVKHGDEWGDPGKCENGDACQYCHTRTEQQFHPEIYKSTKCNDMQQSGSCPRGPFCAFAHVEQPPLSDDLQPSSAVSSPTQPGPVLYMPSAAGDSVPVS

B1: ENSG00000101596:stop:overlap|stop_codon|ENSG00000101596|stop_codon|NA|stop_codon (ssRNA)
RNA: GGGAGUUCUACAGUCCGACGAUCUUAGUUGUAAUAAAAUAAAAGAUAAUGACAAAGAAGAUGGCUGCUUCUAUUUCAGGUUAUAGUUGAAGUCCUGCCUAAUCAACCUGUGAAGUUAGUACCUAAAAUUAAACCACCUACACCCAACAGAGGAUUGAGCAUCA
B2: chr4:108667468:108667493:+|3pUTR|ENSG00000198856|msi1_unk|total|mutant (ssRNA)
RNA: GGGAGUUCUACAGUCCGACGAUCGAAUUUUUUUUCCUGCUGGCCUAUUGCUAUACCAAUGAUGUUGAGUGGCAUUUUCUUUUCCGUUUUUCAUUAAAAUAUAUUCCAUAUCUACAACUAUAAUAUCAAAUAAAGUGAUUAUUUCAACAGAGGAUUGAGCAUCA
B3: chr19:51415897:51416167:-|CDS|ENSG00000142512|control|control|control (ssRNA)
RNA: GGGAGUUCUACAGUCCGACGAUCGCCACACUGAGCUGGGUCCUGCAGAACAGAGUCCUCUCCUCGUCCCAUCCCUGGGGCCCUAGACCCCUGGGGCUGGAGCUGCCCGGGGUGAAGGCUGGGGAUUCAGGGCGCUACACCUGCCAACAGAGGAUUGAGCAUCA
B4: chrX:119243754:119243940:+|3pUTR|ENSG00000101856|msi1|total|mutant (ssRNA)
RNA: GGGAGUUCUACAGUCCGACGAUCAGCUGCAAAAAAGCAUAUUUUCUGUGUUUCUGGACUGCACUGUUGUCCUUGCCCUCACACCGACACUCAGACACCCUCACAAACACAGCCGUCUACCGUCCGGAUUAAAACCGGAUCUGACAACAGAGGAUUGAGCAUCA
B5: chr8:28970260:28970371:+|CDS|ENSG00000147421|unk|total|mutant (ssRNA)
RNA: GGGAGUUCUACAGUCCGACGAUCUCUUCCUCUACAGCUACAGCUUCCACACAGACGCAGCAUUCGGGAAUGUCCCCGUCACCCCGCAACAGUUAUGAUACUUCCCCACAGCCUUGCACUACCAAUCAAAAUGGGAGGGAGAAUCAACAGAGGAUUGAGCAUCA
B6: ENSG00000107863:be:win_3101|CDS|ENSG00000107863|bound_else_gene|NA|bound_elsewhere_windowed (ssRNA)
RNA: GGGAGUUCUACAGUCCGACGAUCCGAUCCAGGAGAGCAGCAACCUAAACGAAGAGGACACUGGAGUCACUAACAGGGAUCUAAUUAGUCGAAGAAUAAAAGAAUACAACAAUCUGAUGAGCAAAGCAGAACAGUUGCCAAAAACAACAGAGGAUUGAGCAUCA
B7: ENSG00000070961:be:win_3651|CDS_3pUTR|ENSG00000070961|bound_else_gene|NA|bound_elsewhere_windowed (ssRNA)
RNA: GGGAGUUCUACAGUCCGACGAUCAACAUCACUCUGAUUGUAAGCUGAAUGUUAACACACUAGCUGCAUUGUAAAGAAACAAAUUGAAACUGGGUCUUUUCACAUAUUGUGAUGGACAAGCUAGUAUUCUUGUCUUUGGACUUCCAACAGAGGAUUGAGCAUCA
B8: chr4:125449804:125449905:+|CDS|ENSG00000196159|msi1|FALSE|unique (ssRNA)
RNA: GGGAGUUCUACAGUCCGACGAUCAAACAGAUCUUAAAAUACCAAAAUGUCACUGGCUUCAGUAAUGUGAAUAUCAACAGGCAUAGUUUUAUAGUGACAUCUUCAGAUCGAGGUAAACCUUCCUUAAUUAGUGAGACAACAGUUCAACAGAGGAUUGAGCAUCA
B9: chrX:119243474:119243703:+|3pUTR|ENSG00000101856|msi1|total|mutant (ssRNA)
RNA: GGGAGUUCUACAGUCCGACGAUCGGUAUUUCCCAAAACAGGUAAAAAUCUUAAAUGUGCACCAAGAGCAAAGGAUCAACUUUCCGUCAUGAUGUUCUGUAAAGACAACAAAUCCCUUUUUUUUUCUCAAUUGACUUAACUGCACAACAGAGGAUUGAGCAUCA
B10: chr17:47658542:47658643:+|CDS|ENSG00000108424|unk|FALSE|unique (ssRNA)
RNA: GGGAGUUCUACAGUCCGACGAUCGAUUCUGACUGCCAUAAUCCAGGGGAUGAGGAAAGAAGAGCCUAGUAAUAAUGUGAAGCUAGCUGCUACGAAUGCACUCCUGAACUCAUUGGAGUUCACCAAAGCAAACUUUGAUAAAGACAACAGAGGAUUGAGCAUCA
B11: chrX:48915045:48915146:-|CDS|ENSG00000102096|unk|FALSE|unique (ssRNA)
RNA: GGGAGUUCUACAGUCCGACGAUCCCAGCACUGCCAUUCCCGUGGAGUUGUCCAUCGUGACAUCAAGGAUGAGAACAUCCUGAUAGACCUACGCCGUGGCUGUGCCAAACUCAUUGAUUUUGGUUCUGGUGCCCUGCUUCAUGACAACAGAGGAUUGAGCAUCA
B12: ENSG00000071553:stop:overlap|stop_codon|ENSG00000071553|stop_codon|NA|stop_codon (ssRNA)
RNA: GGGAGUUCUACAGUCCGACGAUCCCCCCCAUGACACUGACGCCCAUUCCCCAAGGGAAGCUUCAGUGACCUUGUCCCAACUGUAGGGAGGUGUGGGUCGUCUCAUGGGAAGGCCUGUAGUAAACGCUUCAGUGGGCAUGGCGACAACAGAGGAUUGAGCAUCA
B13: chr19:7961171:7961272:-|3pUTR|ENSG00000066044|msi1|total|mutant (ssRNA)
RNA: GGGAGUUCUACAGUCCGACGAUCGGCGGGAUUCCCGCUUCUGAAACUCCCCCUGGAGUCUCACUCCCACACAUGCCCACCGCCCGCAUUCAACAGAGAACUCUGUCUUAAGCUUCAACUGUGAAAAUGAUGACGGGCUUGCCGCAACAGAGGAUUGAGCAUCA
B14: chr11:214995:215097:+|3pUTR|ENSG00000177963|unk|total|mutant (ssRNA)
RNA: GGGAGUUCUACAGUCCGACGAUCCCUCCUUCCUACUGGUUCCGACUACACUUACAACAAGGAAAAUGCCCCUCGUGUGACCACCGAUUGAGAUUUAUACCACAUACCACACACCGCCACAGAAACAUCAUCUUGAAAUAAAGACAACAGAGGAUUGAGCAUCA

Biological target: T1, UNK ZnF1-6 (called full-length)
Test: nsRBNS (natural sequence RNA bind-n-seq); RBNS binding buffer (assumed for nsRBNS): 25 mM Tris pH 7.5, 150 mM KCl, 3 mM MgCl2, 0.01% Triton X-100, 500 ug/ml BSA, 20 U/ml SUPERase-In, 4 C; UNK is unkempt and MSI1 is Musashi-1; names of the RNAs are library labels; protein concentration not given here; high values mean tight binding

Q: How did the binding signal turn out when B1 was run?
A: 1.46 enrichment R

Q: For B2, which binding signal is on record?
A: 1.32 enrichment R

Q: How did the binding signal turn out when B3 was run?
A: 0.641 enrichment R

Q: Which binding signal does the source give for B4 here?
A: 0.437 enrichment R

Q: Which binding signal does the source give for B5 here?
A: 0.625 enrichment R

Q: How did the binding signal turn out when B6 was run?
A: 1.04 enrichment R

Q: With B7 as the binder, how does the binding signal read?
A: 0.339 enrichment R

Q: B8 was tested. Which binding signal did it give?
A: 1.11 enrichment R

Q: Which binding signal does the source give for B9 here?
A: 0.549 enrichment R

Q: How did the binding signal turn out when B10 was run?
A: 1.3 enrichment R

Q: How did the binding signal turn out when B11 was run?
A: 0.788 enrichment R

Q: Which binding signal does the source give for B12 here?
A: 0.844 enrichment R

Q: For B13, which binding signal is on record?
A: 0.433 enrichment R

Q: B14 was tested. Which binding signal did it give?
A: 0.61 enrichment R
